Measurements from PMC11602027.
These are yes or no findings as the source states them, for the method shown. For some assays here: Binding seen in cells or lysates may run through a third protein. Some binding calls cover weakened binding; strength is not graded here. For some assays here: Where a sequence is shown, tags or fusion partners need not be part of it.

T1: GST-Rgf1 (S. pombe) (UniProt Q9Y7U6)
T1 sequence: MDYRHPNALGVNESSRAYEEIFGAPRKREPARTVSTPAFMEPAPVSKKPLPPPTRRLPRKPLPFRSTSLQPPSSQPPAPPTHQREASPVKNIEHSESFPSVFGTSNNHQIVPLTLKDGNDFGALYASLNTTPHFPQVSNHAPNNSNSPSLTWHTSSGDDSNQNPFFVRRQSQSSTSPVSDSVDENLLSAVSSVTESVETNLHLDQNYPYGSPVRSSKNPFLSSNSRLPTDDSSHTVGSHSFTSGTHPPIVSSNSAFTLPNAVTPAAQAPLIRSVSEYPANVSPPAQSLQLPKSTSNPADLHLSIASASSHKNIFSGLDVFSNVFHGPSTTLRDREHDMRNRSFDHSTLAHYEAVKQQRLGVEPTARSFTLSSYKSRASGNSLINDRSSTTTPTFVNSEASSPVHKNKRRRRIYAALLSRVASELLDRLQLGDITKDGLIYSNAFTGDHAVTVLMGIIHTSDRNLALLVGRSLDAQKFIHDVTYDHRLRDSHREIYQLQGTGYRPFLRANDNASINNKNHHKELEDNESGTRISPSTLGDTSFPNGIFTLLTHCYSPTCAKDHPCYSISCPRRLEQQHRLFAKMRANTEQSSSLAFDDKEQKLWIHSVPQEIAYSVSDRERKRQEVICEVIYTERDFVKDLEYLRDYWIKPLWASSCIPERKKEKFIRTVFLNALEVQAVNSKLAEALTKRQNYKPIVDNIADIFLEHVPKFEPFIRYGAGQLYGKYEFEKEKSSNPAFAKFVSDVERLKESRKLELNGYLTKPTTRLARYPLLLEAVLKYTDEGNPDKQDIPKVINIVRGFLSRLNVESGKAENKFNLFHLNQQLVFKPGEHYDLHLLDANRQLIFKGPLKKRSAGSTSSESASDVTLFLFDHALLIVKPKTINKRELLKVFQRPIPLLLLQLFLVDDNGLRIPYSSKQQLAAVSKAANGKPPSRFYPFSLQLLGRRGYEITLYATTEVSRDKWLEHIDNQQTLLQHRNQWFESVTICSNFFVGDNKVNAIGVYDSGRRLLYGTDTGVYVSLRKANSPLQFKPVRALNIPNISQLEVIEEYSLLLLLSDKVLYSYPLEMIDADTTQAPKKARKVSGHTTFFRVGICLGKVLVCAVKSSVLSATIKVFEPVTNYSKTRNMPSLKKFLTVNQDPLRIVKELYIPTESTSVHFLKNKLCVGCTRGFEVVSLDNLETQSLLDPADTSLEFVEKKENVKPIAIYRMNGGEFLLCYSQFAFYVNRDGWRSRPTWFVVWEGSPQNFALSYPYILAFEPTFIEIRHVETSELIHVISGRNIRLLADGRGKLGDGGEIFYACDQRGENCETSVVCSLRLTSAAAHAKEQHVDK

T2: pGBK-rgf1 (S. pombe) (UniProt Q9Y7U6)
T2 sequence: T1 sequence

B1: GFP-tagged Tea4 (protein, UniProt O60132 1-821)
chain: MLHMNSASSADSMEIMESHFDPTQQNDSTIIESRYSPEEYLEQSFEIQRIISGENSEPQTVASQEISDSQEEDTTLTSSQFEDCGTEYNEVVEDDEFRSEDEDDFMDEEEEYALYEAELSSSPSIHEEVIDCNFVHAIRGFEATVEGQVDATKGDMMILLDDSNSYWWLVKMCKNLAIGYLPAEYIETPSERLARLNKYKNSETSNSQQSVTLPPLDIVEKTLEAPSPNFRIKRVTFTCSSNSSDDEMDSENDYEAMVNRTVAENGLEIEFSDSSDSSLSAEYRSESEDHVTDSPAYVDLTELEGGFNQFNSTSFQSTSPLGLEIVETEINGSSTTADSKNSHSPYSKFSSAYPDAENSNISKINISIAGNKELYGNATQSDPSLYSTWIANKHKTASSATVDSPLRRSLSVDAMQSNASFSSYSSTSNTDKSLRPSSYSAVSESSNFTHDVSRDNKEISLNAPKSIIVSQSDSFDTSNVTQDAPNDVEKEPISGQMPNNLSVQSLKQLEVYPIRHSVSIEMPSEKLLSPRLYSSSTPSSPTKGFQKDDEEDSENRKQADKVELSPSSLLRQMSLPVDSSSQSDAQCTTSSVYITAERKAFSQSSIDLSTLSNHHVNNEINRRSFAGGFTSLADELSEMRELLHESPAPLECNEEMVIPTPELDASSAIPSSSISHDEDLLPRKNTEESTSSSSFSSLITSPASLQYDENPFKQSVVAELNNNSSSVPFVDSAHASDIHAYDNDHVSTKNKEFNRRLREFILDPDSLSGLYWSVKSAGVRASRRVSRNIEGESVSSDLDDIFANVLKGLSDEMASLLNTNR
B2: pGAD-tea1 (protein, UniProt P87061 1-1147)
chain: MSFLFKRNKGSAHKPTKPNFSKTSTTPSTSQLKHSHESNVKMSTSTVTEHRKKPTGSGSHITASPWSKLTVRGSSNVLPRYSHASHLYAEGGQEIYIFGGVASDSQPKNDLWVLNLATSQFTSLRSLGETPSPRLGHASILIGNAFIVFGGLTNHDVADRQDNSLYLLNTSSLVWQKANASGARPSGRYGHTISCLGSKICLFGGRLLDYYFNDLVCFDLNNLNTSDSRWELASVVNDPPPARAGHVAFTFSDKLYIFGGTDGANFFNDLWCYHPKQSAWSKVETFGVAPNPRAGHAASVVEGILYVFGGRASDGTFLNDLYAFRLSSKHWYKLSDLPFTPSPRSSHTLSCSGLTLVLIGGKQGKGASDSNVYMLDTSRFRLGSVPTTSGRQRNTSFFSNSTGNTNPSAFNGLLTSSRIPSYNGSKVRSTSHPSRQQYIGSSNSRFNTRHQTISTPVSGRASNDLPSPVVPTRSNSSSILQPSYNLNSHSSDRRNTNDDDQSSLNSQQLSNQAKAQGEVSPTLSFVPSSHSMEQGNGSVASANNAQSEAATRSINSISEVSEVRFPEQSSVKTVDERKSLDGRITSVTLETLVEKYSELSKQQIVEWFKSKLYEILRDSASKIDSLTEKLKVANAEKNAALCEAALEKVPLAKHNKLSDGTFSTPDKENVQSTNDAHIMQENFSLHKALEVMRETSSDLDKQLKDATASQKELIVQTSSFQKELVEERERHNAISKRLQEIESLYRDRELLVTNLEDQLVDQTVTINKFAFERDQFRERSMGFENTIKDLTRKMEATDMLNVSLHESLRSVQTENSELVTEMALLKAELVKKQAIIDANANIYDKLTADHTNYETVSADINQNLKETLDKLLNGSSDFKNNEIELLHDQIRITNAKLEKREKLINASKYIEDTLRSEIQEAAEKVSNLEFSNFNLKEENSNMQLQLMKALEQRNTGAKQLVNLRMQLSTATSELDMLKLKLRTTALALEESPDDYSDILSILRADMSPFHDLHKQCGVLIDTLNGVKRGFGIFEKKFTDYHKFLENISDKLKSEEDTSLETPIHENQSIQSDQIKEVGEVLSAIKSLSDSVMLLKNQIDDLAKEKLPLSSSDDEKVNIKEKTDFMKLLVKSGLSNPPAKEPVHDNEN

Tests used:
GST-Rgf1 (S. pombe) = target: T1, GST-Rgf1 (S. pombe); assay: pull-down; 2 to 10 μg GST-tagged protein purified from E. coli and coupled to GS beads, incubated 2 h with S. pombe cell extracts (2 to 3 mg total protein; 50 mM Tris-HCl pH 7.5, 20 mM NaCl, 0.5% NP-40, 10% glycerol); blotted with anti-HA or anti-GFP; GS beads alone as control; only the target purified
pGBK-rgf1 (S. pombe) = target: T2, pGBK-rgf1 (S. pombe); assay: two-hybrid; S. cerevisiae AH109; pGBKT7 (GAL4 binding domain) and pGADT7 (GAL4 activation domain) fusions; growth on YNB plates without histidine

Binder | binding (GST-Rgf1 (S. pombe)) | binding (pGBK-rgf1 (S. pombe))
B1 | binds | 
B2 |  | no binding
